± gives the standard deviation of the averaged measurements. Some of the results follow.
What follows are sequences tested on PfAP2-G AP2 domain (GST-tagged) (assay: gcPBM binding intensity (ln(normalized median fluorescence intensity)); higher = stronger DNA binding).
Procedure, shortened: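 An Agilent 4 × 180k array of primer-extended double-stranded 36-bp intergenic genomic probes, with negative controls, was incubated for 1 h with GST-tagged P. falciparum DNA-binding domains expressed in E. coli. Alexa488 anti-GST antibody detected bound protein, scanned at 488 nm. Binding intensity is the highest Masliner-normalised natural-log median intensity across replicate spots of either probe orientation.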

Row | Sequence | gcPBM binding intensity (ln)
1 | AAGAACAAACAAAATAGTACAATATATATATATATA [XGTACX_site4258] | 11.2 ± 0.76
2 | TTTAAATATTTTATAGCATGCTACCAATATGTATAT [TGCATGCA_site291] | 10.1 ± 0.23
3 | TACACCCAGAAATGCACACACATATATATATATATA [CACACA_site5289] | 10.1 ± 0.23
4 | ATGAACATGTGACAATGTACATTTATATCTTAAGAA [XGTACX_site4960] | 10.8 ± 0.43
5 | ATAATATATATATATATGTATGTATATATGTATGTA [GTGCAC_negctrl_site575] | 9.71 ± 0.17
6 | TTAACATAAATTGTGTCATTTTTTTTTTTTTTTTTA [CACACA_negctrl_site1221] | 9.725 ± 0.021
7 | TATTTTTTAATTGTTTCACACATTATTTTTTACATA [CACACA_site6078] | 9.92 ± 0.17
8 | TATTCTTATTATTACACACACAATTATATTTACCCC [CACACA_site6381] | 10.28 ± 0.049
9 | TATATATATATAATAGCATGCTATATTATATATATA [TGCATGCA_site886] | 9.59 ± 0.73
10 | TATAAACAGACGAAAACACACATATGTAGATATATA [CACACA_site6371] | 10.07 ± 0.085
11 | TATATATTAGTGTTGACACACACAAAAAAAAAAAAA [CACACA_site8392] | 10.2 ± 0.62
12 | TTAACACATTTTATGTGTACTCATATGATTTAAAAT [XGTACX_site7516] | 11.4 ± 1
13 | TTAAAATGAAGAAGTGCACACATATATATATTTATA [CACACA_site8063] | 10.4 ± 0.2
14 | AATTTTTTTTTCTTTTGTACGTAAATATGTGTAGGC [XGTACX_site215] | 11.4 ± 1.1
15 | AGATTTCAAGGTAATAGATCAATTTTAATTTGTAAA [CACACA_negctrl_site514] | 9.645 ± 0.064
16 | ATTTTTTTTTTTTTTTTTTTTTTTTTTTTTTTTTTT [CACACA_negctrl_site1364] | 11.1 ± 0.6
17 | ATCAGGCAAAATTTTTGTACATATATATTTTATTTT [XGTACX_site1245] | 10.9 ± 0.43
18 | ATTTTTTTTTTTTTTTTTTTTTTTTATGAATGTTAT [CACACA_negctrl_site1319] | 9.6 ± 0.014
19 | TTATAAATGTGCGTAGTGCATAAACAAAAAAAAAAT | 10.4 ± 0.3

Row | Sequence | gcPBM binding intensity (ln)
20 | AAAAAAAAAAAACATACACACATTGAACTTTTATAT [CACACA_site3250] | 9.955 ± 0.021
21 | ATAAAATAAAAATTCTGTACAGAATTAAAAAAATAT [XGTACX_site6961] | 10.9 ± 0.53
22 | TATATGTGATAACACGCACACAAATGTATATAATTT [CACACA_site2593] | 10.3 ± 0.17
23 | AAAAAAAGTAAAAAGTGTACTTAATATATATATATA [XGTACX_site838] | 11.3 ± 0.86
24 | TGTAGCATTTAATTCACACATAAAAAATGTATCCAT [CACACA_site4986] | 10.3 ± 0.34
25 | TACACACCTAACTATGCATGCATCAATATAGTGGAT [TGCATGCA_site443] | 9.66 ± 0.21
26 | TTTTATATAAATATCACACACACACGCATGTTTTAA [CACACA_site6187] | 10.1
27 | TACAATATACCTACTTGTACACAAAATAAAAGTAGT [XGTACX_site6029] | 11.4 ± 0.73
28 | AAAAAAAAATTAAACATACACACGTTACTATTTTTA [CACACA_site1687] | 9.64 ± 0.26
29 | AATGAAAAATTGTAATGTACATAAATAAATAAATAA [XGTACX_site4048] | 11.1 ± 0.48
30 | ATCATAATTTATTATACACACAATACGTGACCTATT [CACACA_site6977] | 10.6 ± 0.42
31 | TATTCATGCATATACACACACATATATATATATTTT [CACACA_site3955] | 10.025 ± 0.007
32 | ACCACCATATAACATACATGCATCTTTTTTCCCTTC [TGCATGCA_site583] | 10.11 ± 0.057
33 | GAACTCATTTAATATTGTACATTCTGATATTTTTTA [XGTACX_site5995] | 10.6 ± 0.22
34 | AAAAATAAAACAATTACACACATAACTTTATTTTTA [CACACA_site6563] | 9.97 ± 0.071
35 | AAAAGCTTAAAAAATTGTACATAAATGAATAAATAT [XGTACX_site5201] | 11 ± 0.71
36 | ACAAATGGAACTCCTACAAAAAATTTCCATAATATT [XGTACX_negctrl_site132] | 10.1 ± 0.2
37 | TAAACCTATTATACGGGTACTTATTTGATTCTTATA [XGTACX_site5292] | 11 ± 0.66
38 | GTATAAAATATTGATTGTACTTTATTCATTTTTTTT [XGTACX_site2520] | 11.2 ± 0.91

Row | Sequence | gcPBM binding intensity (ln)
39 | TCATATTCCAAGTGTACACATAAATCCCTAATAACA [CACACA_site5167] | 11.7 ± 0.94
40 | TCATTGTTTAATATGTGTCCTCAAAATTTGTTATAT [XGTACX_site677] | 11.2 ± 0.76
41 | TATATACATACATATACACACATATATATATATATA [CACACA_site401] | 10.1 ± 0.12
42 | TCTTGTTAATATATTAAATATATCTATAAATATATA [XGTACX_negctrl_site486] | 9.815 ± 0.021
43 | CATTTAGTTCATACTATGCACACTACGTATATTTTT [CACACA_site2694] | 10.19 ± 0.042
44 | AATGCACAGCTCTTAGGCAAAAGTGGGTATTTACAC [GTGCAC_negctrl_site579] | 10.4 ± 0.33
45 | TGTATAAAAAACTAATGTACAAATGACAAGATATCT [XGTACX_site4600] | 10.7 ± 0.29
46 | ATTTTTTTTTTTTAATTTGATATTTGCGTTTATATA [CACACA_negctrl_site1305] | 9.665 ± 0.007
47 | ACAATTCATTAGAATTGTACAAAAGGATGAAGCGAA [XGTACX_site5242] | 10.8 ± 0.4
48 | ATTTAATACAAATACACACACAAATATGTACCTATA [CACACA_site7718] | 11.2 ± 0.77
49 | AATATATGATAATTTTTTTTTTTTTTTTTTAAATAT [CACACA_negctrl_site452] | 9.53 ± 0.12
50 | TGTGTTAGCAAAAAAGTGCACAGGGAAAAAAAAATA [GTGCAC_site9397] | 10.6 ± 0.46
51 | ATGATATTATAAAAAAGTACATATGTATATAATTAT [XGTACX_site7652] | 11.4 ± 0.75
52 | AAAAAATGTTAAAAAAGTACTTTCTTTATTTAATAA [XGTACX_site2908] | 11.1 ± 0.65
53 | AACAATTGTTAAAGGTGTACCATATGTATATAAGAA [XGTACX_site5723] | 11.2 ± 0.77
54 | GTATATATGTATATATGTACATATATATAATATATT [XGTACX_site56] | 11.1 ± 0.58
55 | TAAAACATATATACAAGTACACAAAGGATATATATA [XGTACX_site3710] | 11.4 ± 0.95
56 | CAGTGCCAAATTAGCACACACATATATACATGAATT [CACACA_site2814] | 10.1 ± 0.16

Reference: the supplement of paper PMC11417369
